Assay results: paper PMC6919601, “Identification of Plasmodium dipeptidyl aminopeptidase allosteric inhibitors by high throughput screening” (PLoS ONE, 2019)
The whole screen tested about 110,000 compounds, of which about 230 (0.21%) showed an effect of 50% or more. This is one part of the list.

Biological target: DPAP1 (Plasmodium falciparum, UniProt Q8IIJ9)
Assay: primary screen, percent inhibition; read by cleavage of a fluorogenic dipeptide substrate; higher = more effect of the substance
Set-up: species or system P. falciparum D10 trophozoite lysates; single well
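Note: 30 min substrate incubation versus DMSO and 10 µM JCP410 controls.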

Chain of DPAP1 (Q8IIJ9 whole entry, looked up): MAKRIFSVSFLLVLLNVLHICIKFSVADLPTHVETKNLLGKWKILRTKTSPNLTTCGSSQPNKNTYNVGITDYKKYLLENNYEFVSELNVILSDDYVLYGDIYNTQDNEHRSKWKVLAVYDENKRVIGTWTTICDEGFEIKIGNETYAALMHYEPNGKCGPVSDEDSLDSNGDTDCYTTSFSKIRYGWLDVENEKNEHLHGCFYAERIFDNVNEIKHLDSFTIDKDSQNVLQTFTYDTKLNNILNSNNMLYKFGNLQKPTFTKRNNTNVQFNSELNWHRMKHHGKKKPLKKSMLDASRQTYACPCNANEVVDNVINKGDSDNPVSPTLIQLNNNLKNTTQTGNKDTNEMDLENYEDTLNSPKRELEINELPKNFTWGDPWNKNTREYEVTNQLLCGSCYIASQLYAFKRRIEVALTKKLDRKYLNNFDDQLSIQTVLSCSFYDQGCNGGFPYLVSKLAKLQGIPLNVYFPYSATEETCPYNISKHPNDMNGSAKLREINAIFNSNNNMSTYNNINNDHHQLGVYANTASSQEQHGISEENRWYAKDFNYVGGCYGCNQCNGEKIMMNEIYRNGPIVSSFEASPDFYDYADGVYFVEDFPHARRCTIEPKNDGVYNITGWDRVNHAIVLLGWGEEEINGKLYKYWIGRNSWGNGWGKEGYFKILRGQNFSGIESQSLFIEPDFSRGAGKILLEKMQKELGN

Row | SMILES | % Inhibition @ 10 uM
1 | COc1ccccc1-c1cc(C(=O)Nc2c(C)nn(Cc3ccccc3Cl)c2C)no1 | 10.7%
2 | COc1ccc2nc(NC(=O)C(NS(=O)(=O)c3cccc4nsnc34)C(C)C)sc2c1 (centres unmarked) | 2.93%
3 | CCOC(=O)C1CCCCN1Cc1ccc(F)cc1F (centres unmarked) | 4.67%
4 | O=C(Cn1ncc2c3ccccc3n(Cc3ccccc3F)c2c1=O)N1CCc2ccccc2C1 | 1.8%
5 | COc1ccc(NC(=O)c2cc3ccccc3o2)cn1 | -2.63%
6 | COCCCN1C(=S)NC2c3cccc(OC)c3OC1(C)C2C(=O)N(C)C (centres unmarked) | -2.92%
7 | CCOC(=O)c1c(-c2ccccc2)csc1NC(=O)c1nn(CC)cc1Br | 0.413%
8 | CC(C)CS(=O)(=O)C1=NN2C(=N)/C(=C\c3ccco3)C(=O)N=C2S1 | 1.9%
9 | OCCCNCc1cccn1-c1ccccc1 | -4.61%
10 | CC(C)(C)c1ccc(C(=O)NCc2cccc3ccccc23)cc1 | -3.48%
11 | CC(=O)c1cn(CC(=O)NCc2cccnc2)c2ccccc12 | 0.0289%
12 | Clc1ccc(CN2CCN(c3ncccn3)CC2)cc1 | -1.07%
13 | COc1cc2c(cc1OC)C(c1ccc(Cl)cc1Cl)NCC2 (centres unmarked) | -0.254%
14 | COc1nccnc1NS(=O)(=O)c1ccc(NC(=S)NC(=O)/C=C/c2ccco2)cc1 | 3.47%
15 | CC1CCC(Nc2nc3c(-c4cccc(F)c4)nnn3c3ccccc23)CC1 (centres unmarked) | 3.59%
16 | CC1=C(C(N)=O)C(c2ccccn2)n2ncnc2N1 (centres unmarked) | 3.6%
17 | CC(NC(=O)c1cccnc1)c1cc2c(cc1Cl)OCCO2 (centres unmarked) | 0.475%
18 | CN(C)c1ccnc(N(Cc2ccccc2)Cc2ccccc2)c1C#N | 0.878%
19 | CCCc1nc2nc(C)c(NC(=O)c3cccc(F)c3)c(O)n2n1 | -2.78%
20 | Cc1ccc(OCCOc2cccc(/C=N/n3cnnc3)c2)cc1 | -1.24%
21 | O=C(C1=C(O)C(=O)N(Cc2ccccc2)C1c1ccncc1)c1ccccc1 (centres unmarked) | -2.05%
22 | N#Cc1c(-c2ccco2)cc(-c2cccs2)nc1OCC(N)=O | 7.22%
23 | COc1ccc(/C=C/C(=O)N2CCCCC2)cc1 | 9.29%
24 | COc1ccccc1CNC(=O)c1ccc(C/N=c2/c(N3CCOCC3)c(O)c2=O)cc1 | 4.33%
25 | FC(F)(F)c1cc(-c2ccco2)nc2cc(-c3ccccc3)nn12 | 2%

Row | SMILES | % Inhibition @ 10 uM
26 | O=C(NCCCO)C(=O)NC1CCCCC1 | -5.9%
27 | CC1=C(C(N)=O)C(c2ccco2)C(C(N)=O)=C(C)N1 | -2.29%
28 | CN(C)CCN1C(=O)CC2(C)Sc3ccccc3N=C12 (centres unmarked) | 2.48%
29 | Cc1cc(O)c2c3c4c(cc(O)c13)C(C)(C)C(=O)c1c(O)cc(O)c(c1-4)C2=O | 21.6%
30 | CC(=O)n1c2ccccc2c2c1c1ccccc1n2C | 2.51%
31 | CCOC(=O)c1ccc(Nc2ccc([N+](=O)[O-])cn2)cc1 | -2.6%
32 | Cc1cc(NS(=O)(=O)c2ccc(NC(=O)COc3ccc(C(C)(C)C)cc3)cc2)no1 | 4.77%
33 | O=C(CCCOc1ccc(Cl)cc1Cl)Nc1ccc(S(=O)(=O)N2CCOCC2)cc1 | 1.7%
34 | CCCCCOC(=O)Nc1ccc(S(=O)(=O)Nc2ccc(Br)cc2)cc1 | -7.11%
35 | Cc1cc(Oc2nc3ccccn3c(=O)c2/C=C(\C#N)C(=O)NC2CCCC2)ccc1Cl | 16.3%
36 | CC(/N=C/C1=C(O)CNC1=O)c1ccccc1 (centres unmarked) | 2.17%
37 | COc1cc(OC)c(/C=C2\SC(=O)N(Cc3ccc(F)cc3)C2=O)cc1Br | 1.81%
38 | Cc1nnc2c3ccccc3c(N3CCOCC3)nn12 | 5.36%
39 | O=S1(=O)C(/C=N/Cc2ccco2)=C(O)c2sccc2N1Cc1ccccc1 | -2.53%
40 | N#C/C(=C\c1cccc(F)c1)c1nc(-c2ccc(Cl)c(Cl)c2)cs1 | -2.42%
41 | O=C(C1c2ccccc2C(=O)N2CCc3ccccc3C12)N1CCN(C2CCCCC2)CC1 (centres unmarked) | -8.56%
42 | Cc1onc(-c2ccccc2)c1C(=O)NCCCNC(=O)c1c(-c2ccccc2)noc1C | 3.6%
43 | Cc1ccccc1C(=O)NCCn1c(C)cc2ccccc21 | -0.396%
44 | COc1ccc(NS(=O)(=O)c2ccc([N+](=O)[O-])cc2)cc1 | 5.69%
45 | COc1cccc(-c2csc(C(=O)N[C@@H](CC(C)C)C(=O)NCC#N)c2)c1 | -1.41%
46 | O=C(NCCOc1ccc(F)cc1)c1cccs1 | 0.0719%
47 | Cc1ccccc1C(=O)NCc1nc(-c2ccccc2)no1 | -1.22%
48 | CC1(C)CC(=O)C2=C(C1)c1c(ccc3ccccc13)NC2c1ccc(-c2ccc(C(=O)O)cc2)o1 (centres unmarked) | 6.9%
49 | CCOC(=O)C1CCN(Cc2ccc(N(C)C)cc2)CC1 | 3.25%
50 | CCNC(=O)C1c2ccccc2C(=O)N(C2CCCC2)C1c1cccs1 (centres unmarked) | -5.3%

Row | SMILES | % Inhibition @ 10 uM
51 | O=C(CSc1nc(O)cc(-c2ccccc2)n1)c1c[nH]c2ccccc12 | 4.18%
52 | CCOC(=O)N1CCC(NC(=O)Cn2nc(Cc3ccncc3)c3ccccc3c2=O)CC1 | 2.04%
53 | COC(=O)Nc1ccccc1C(=O)N1CCCCC1 | 0.83%
54 | Cc1sc2c(c1C)c(=O)n(Cc1ccccc1)c(=O)n2Cc1cc(=O)n2ccccc2n1 | 10.4%
55 | CC(C(=O)NCCCN1CCCC1=O)n1c2ccccc2c2cnn(C)c(=O)c21 (centres unmarked) | 1.18%
56 | Cc1ccc2c(c1)cc1c(=O)n(CC(=O)NC3CCCc4ccccc43)nc(C)n12 (centres unmarked) | -5.32%
57 | O=C(NCCN1CCOCC1)c1cc2c(s1)-c1ccccc1S(=O)(=O)C2 | -3.96%
58 | C=CCSc1nnc(NC(=O)c2nc(S(=O)(=O)Cc3ccc(F)cc3)ncc2Cl)s1 | -2.71%
59 | COc1ccc(Cl)cc1-n1nnc(-c2nc(-c3ccncc3)no2)c1N | 3.73%
60 | CC(C)n1c(-c2cccc(N)c2)nc2ccccc21 | 0.795%
61 | Cc1cccc(-c2noc(CCC(=O)NCc3ccco3)n2)c1 | -0.45%
62 | COc1ccccc1OCC(=O)Nc1ccc(S(=O)(=O)Nc2nc(C)cc(C)n2)cc1 | -0.473%
63 | CN(C)c1ccc(/C=C2\C(=O)NC(=O)N(c3ccccc3Cl)C2=O)cc1 | 3.44%
64 | COc1ccc(OC)c(C2NC(S)=NC(C)=C2C(=O)OC2CCC(C)C(C)C2)c1 (centres unmarked) | 0.736%
65 | Cc1cccc(Oc2nc3c(C)cccn3c(=O)c2/C=C(\C#N)C(=O)NCC2CCCO2)c1C (centres unmarked) | 0.315%
66 | Cc1ccc(CS(=O)Cc2ccc(C(=O)NC3CCCCC3)o2)cc1 (centres unmarked) | -3.65%
67 | CC(=O)N(C)c1c(N)n(Cc2ccccc2)c(=O)[nH]c1=O | 4.03%
68 | CCOC(=O)c1cnn(CCOC(=O)c2ccc(OC)cc2)c1NC(=O)c1ccc(OC)cc1 | -2.92%
69 | O=C(Nc1cnn(Cc2ccc(F)cc2)c1)c1cnn2c(C(F)F)cc(-c3ccccc3)nc12 | 2.46%
70 | O=C(CC[S+](O)CCC(=O)NCc1ccccc1)NCc1ccccc1 | 2.94%
71 | O=C(Nc1ccccc1C(=O)O)c1ccc(Cl)cc1 | 3.06%
72 | CCCCN(C)CCCNC(=O)c1ccc(-n2c(C)cc3c2CCCC3)cc1 | 3.24%
73 | CC(=O)c1cc2c(cc1NC(=O)COc1ccccc1)OCO2 | 7%
74 | COc1ccc(NC(=O)C2CC2(c2ccccc2)c2ccccc2)cc1 (centres unmarked) | -3.93%
75 | O=C1CCCN1CCP(=O)(O)CN1CCCCC1 | -7.02%

Row | SMILES | % Inhibition @ 10 uM
76 | CCc1ccc(C2=NN(CCC(=O)NCc3ccccc3Cl)C(=O)CC2)cc1 | -4.53%
77 | CCC(C)n1nc(O)c2c1NC(=O)CSC2c1ccc(Cl)cc1Cl (centres unmarked) | -6.02%
78 | O=C(NCc1cccnc1)C1CCC(CNS(=O)(=O)c2cccc3nsnc23)CC1 (centres unmarked) | -2.25%
79 | CCOC(=O)N1CCC(NC(=O)c2cc(S(=O)(=O)N3CCOCC3)ccc2F)CC1 | -5.64%
80 | Cc1c2c(nc3c(C(=O)NC4CCCC(C)C4C)cnn13)CCCC2 (centres unmarked) | 1.27%
81 | C=CCNC(=O)c1c(O)nc2ccccc2c1O | 1.27%
82 | O=C(Nc1ccc(O)cc1)c1sc2ccccc2c1Cl | -4.43%
83 | COc1ccc(CC(=O)NCc2ccc(Cl)c(Cl)c2)cc1OC | 6.77%
84 | Cc1ccc2oc(=O)c3cnn(CC(=O)N4CCN(C5CCCCC5)CC4)c3c2c1 | 1.62%
85 | CCc1nn(CC(=O)NC(C)CCc2ccco2)c(=O)c2cc3sccc3n12 (centres unmarked) | 3.4%
86 | N#CCCn1c(COc2ccc(Cl)cc2Cl)nc2ccccc21 | -3.48%
87 | CN1CCC(NC2c3ccccc3-c3ccccc32)CC1 | -5.31%
88 | CC(Oc1ccccc1)C(=O)n1nc(-c2ccco2)nc1NCc1cccs1 (centres unmarked) | -3.24%
89 | O=C(Cn1cnc2ccccc21)NCCCN1CCOCC1 | -1.51%
90 | CC(C)(C)C(=O)NCCc1nc2ccccc2n1CCCOc1ccccc1 | -4.07%
91 | COc1cc(/C=C2/SC(=O)N(CC(=O)N3CCN(c4ccccc4)CC3)C2=O)cc(OC)c1OC | 1.17%
92 | CN1CCN(c2nc(-c3ccc(C(=O)NC4(C(=O)NCC#N)CCOCC4)cc3)cs2)CC1 | -6.46%
93 | O=C(Nc1sc2c(c1C(=O)O)CCCCC2)c1cccs1 | -3.25%
94 | COC(=O)c1ccc(C2/C(=C(\O)OC3CCCCC3)C(C)=Nc3ncnn32)cc1 (centres unmarked) | -0.326%
95 | Cc1cccc(NC(=O)c2ccccc2NC(=O)c2ccccn2)c1 | 6.82%
96 | COc1ccc(CO/N=C/c2c(C)[nH]c(=O)[nH]c2=O)cc1 | 2.17%
97 | CN1CCN(CCCOc2ccccc2-c2ccccc2)CC1 | -11.2%
98 | O=C1/C(=C/c2ccc(N3CCOCC3)cc2)S/C(=N\c2ccccc2)N1CC1CCCO1 (centres unmarked) | 7.17%
